From the supplement of paper PMC8728848
The other results are listed elsewhere or left out.

Key:
Assay in all cases: glycan array binding signal (z-score within array); higher = stronger binding
Conditions in all cases: glycan notation: IUPAC condensed, linker removed
[1] = target: Gal(b1-4)GlcNAc(b1-2)[Gal(b1-4)GlcNAc(b1-4)]Man(a1-3)[Gal(b1-4)GlcNAc(b1-2)[Gal(b1-4)GlcNAc(b1-6)]Man(a1-6)]Man(b1-4)GlcNAc(b1-4)GlcNAc
Outline: (§1)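 The binding signal is a Z-score computed within each array and averaged over linkers. Arrays of the same protein sequence at different concentrations or buffers were also averaged together. Data originate from 3228 arrays in the Consortium for Functional Glycomics database, kept only where the protein sequence was available.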

[2] = target: Gal(b1-4)GlcNAc(b1-2)[Gal(b1-4)GlcNAc(b1-4)]Man(a1-3)[GlcNAc(b1-4)][Gal(b1-4)GlcNAc(b1-2)Man(a1-6)]Man(b1-4)GlcNAc(b1-4)GlcNAc
Outline: as §1

[3] = target: Gal(b1-4)GlcNAc(b1-2)[Gal(b1-4)GlcNAc(b1-4)]Man(a1-3)[GlcNAc(b1-4)][Gal(b1-4)GlcNAc(b1-2)[Gal(b1-4)GlcNAc(b1-6)]Man(a1-6)]Man(b1-4)GlcNAc(b1-4)GlcNAc
Outline: as §1

[4] = target: Gal(b1-4)GlcNAc(b1-2)[Gal(b1-4)GlcNAc(b1-6)]Man(a1-6)[Gal(b1-4)GlcNAc(b1-2)Man(a1-3)]Man(b1-4)GlcNAc(b1-4)GlcNAc
Outline: as §1

[5] = target: Gal(b1-4)GlcNAc(b1-2)[Gal(b1-4)GlcNAc(b1-6)]Man(a1-6)[Gal(b1-4)GlcNAc(b1-2)Man(a1-3)]Man(b1-4)GlcNAc(b1-4)[Fuc(a1-6)]GlcNAc
Outline: as §1

[6] = target: Gal(b1-4)GlcNAc(b1-2)[Gal(b1-4)GlcNAc(b1-6)]Man(a1-6)[GlcNAc(b1-4)][Gal(b1-4)GlcNAc(b1-2)Man(a1-3)]Man(b1-4)GlcNAc(b1-4)GlcNAc
Outline: as §1

[7] = target: Gal(b1-4)GlcNAc(b1-2)[Gal(b1-4)GlcNAc(b1-6)]Man(a1-6)[GlcNAc(b1-4)][Gal(b1-4)GlcNAc(b1-2)[Gal(b1-4)GlcNAc(b1-4)]Man(a1-3)]Man(b1-4)GlcNAc(b1-4)[Fuc(a1-6)]GlcNAc
Outline: as §1

[8] = target: Gal(b1-4)GlcNAc(b1-3)Gal(b1-3)GalNAc
Outline: as §1

[9] = target: Gal(b1-4)GlcNAc(b1-3)Gal(b1-3)GlcNAc
Outline: as §1

[10] = target: Gal(b1-4)GlcNAc(b1-3)Gal(b1-4)Glc
Outline: as §1

[11] = target: Gal(b1-4)GlcNAc(b1-3)Gal(b1-4)GlcNAc
Outline: as §1

[12] = target: Gal(b1-4)GlcNAc(b1-3)Gal(b1-4)GlcNAc(b1-2)Man(a1-3)[Gal(b1-4)GlcNAc(b1-3)Gal(b1-4)GlcNAc(b1-2)Man(a1-6)]Man(b1-4)GlcNAc(b1-4)GlcNAc
Outline: as §1

[13] = target: Gal(b1-4)GlcNAc(b1-3)Gal(b1-4)GlcNAc(b1-2)Man(a1-3)[Gal(b1-4)GlcNAc(b1-3)Gal(b1-4)GlcNAc(b1-2)Man(a1-6)]Man(b1-4)GlcNAc(b1-4)[Fuc(a1-6)]GlcNAc
Outline: as §1

[14] = target: Gal(b1-4)GlcNAc(b1-3)Gal(b1-4)GlcNAc(b1-2)[Gal(b1-4)GlcNAc(b1-3)Gal(b1-4)GlcNAc(b1-6)]Man(a1-6)[Gal(b1-4)GlcNAc(b1-3)Gal(b1-4)GlcNAc(b1-2)Man(a1-3)]Man(b1-4)GlcNAc(b1-4)GlcNAc
Outline: as §1

[15] = target: Gal(b1-4)GlcNAc(b1-3)Gal(b1-4)GlcNAc(b1-2)[Gal(b1-4)GlcNAc(b1-3)Gal(b1-4)GlcNAc(b1-6)]Man(a1-6)[Gal(b1-4)GlcNAc(b1-3)Gal(b1-4)GlcNAc(b1-2)Man(a1-3)]Man(b1-4)GlcNAc(b1-4)[Fuc(a1-6)]GlcNAc
Outline: as §1

[16] = target: Gal(b1-4)GlcNAc(b1-3)Gal(b1-4)GlcNAc(b1-3)Gal(b1-4)GlcNAc
Outline: as §1

[17] = target: Gal(b1-4)GlcNAc(b1-3)Gal(b1-4)GlcNAc(b1-3)Gal(b1-4)GlcNAc(b1-2)Man(a1-3)[Gal(b1-4)GlcNAc(b1-3)Gal(b1-4)GlcNAc(b1-3)Gal(b1-4)GlcNAc(b1-2)Man(a1-6)]Man(b1-4)GlcNAc(b1-4)GlcNAc
Outline: as §1

[18] = target: Gal(b1-4)GlcNAc(b1-3)Gal(b1-4)GlcNAc(b1-3)Gal(b1-4)GlcNAc(b1-2)Man(a1-3)[Gal(b1-4)GlcNAc(b1-3)Gal(b1-4)GlcNAc(b1-3)Gal(b1-4)GlcNAc(b1-2)Man(a1-6)]Man(b1-4)GlcNAc(b1-4)[Fuc(a1-6)]GlcNAc
Outline: as §1

[19] = target: Gal(b1-4)GlcNAc(b1-3)Gal(b1-4)GlcNAc(b1-3)Gal(b1-4)GlcNAc(b1-2)[Gal(b1-4)GlcNAc(b1-3)Gal(b1-4)GlcNAc(b1-3)Gal(b1-4)GlcNAc(b1-6)]Man(a1-6)[Gal(b1-4)GlcNAc(b1-3)Gal(b1-4)GlcNAc(b1-3)Gal(b1-4)GlcNAc(b1-2)Man(a1-3)]Man(b1-4)GlcNAc(b1-4)[Fuc(a1-6)]GlcNAc
Outline: as §1

[20] = target: Gal(b1-4)GlcNAc(b1-3)Gal(b1-4)GlcNAc(b1-3)Gal(b1-4)GlcNAc(b1-3)Gal(b1-4)GlcNAc(b1-2)Man(a1-3)[Gal(b1-4)GlcNAc(b1-3)Gal(b1-4)GlcNAc(b1-3)Gal(b1-4)GlcNAc(b1-3)Gal(b1-4)GlcNAc(b1-2)Man(a1-6)]Man(b1-4)GlcNAc(b1-4)GlcNAc
Outline: as §1

[21] = target: Gal(b1-4)GlcNAc(b1-3)Gal(b1-4)GlcNAc(b1-3)Gal(b1-4)GlcNAc(b1-3)Gal(b1-4)GlcNAc(b1-2)Man(a1-3)[Gal(b1-4)GlcNAc(b1-3)Gal(b1-4)GlcNAc(b1-3)Gal(b1-4)GlcNAc(b1-3)Gal(b1-4)GlcNAc(b1-2)Man(a1-6)]Man(b1-4)GlcNAc(b1-4)[Fuc(a1-6)]GlcNAc
Outline: as §1

[22] = target: Gal(b1-4)GlcNAc(b1-3)Gal(b1-4)GlcNAc(b1-3)Gal(b1-4)GlcNAc(b1-3)Gal(b1-4)GlcNAc(b1-2)[Gal(b1-4)GlcNAc(b1-3)Gal(b1-4)GlcNAc(b1-3)Gal(b1-4)GlcNAc(b1-3)Gal(b1-4)GlcNAc(b1-6)]Man(a1-6)[Gal(b1-4)GlcNAc(b1-3)Gal(b1-4)GlcNAc(b1-3)Gal(b1-4)GlcNAc(b1-3)Gal(b1-4)GlcNAc(b1-2)Man(a1-3)]Man(b1-4)GlcNAc(b1-4)[Fuc(a1-6)]GlcNAc
Outline: as §1

[23] = target: Gal(b1-4)GlcNAc(b1-3)Gal(b1-4)GlcNAc(b1-3)Gal(b1-4)GlcNAc(b1-3)Gal(b1-4)GlcNAc(b1-3)Gal(b1-4)GlcNAc(b1-2)Man(a1-3)[Gal(b1-4)GlcNAc(b1-3)Gal(b1-4)GlcNAc(b1-3)Gal(b1-4)GlcNAc(b1-3)Gal(b1-4)GlcNAc(b1-3)Gal(b1-4)GlcNAc(b1-2)Man(a1-6)]Man(b1-4)GlcNAc(b1-4)GlcNAc
Outline: as §1

[24] = target: Gal(b1-4)GlcNAc(b1-3)Gal(b1-4)GlcNAc(b1-3)Gal(b1-4)GlcNAc(b1-3)Gal(b1-4)GlcNAc(b1-3)Gal(b1-4)GlcNAc(b1-2)Man(a1-3)[Gal(b1-4)GlcNAc(b1-3)Gal(b1-4)GlcNAc(b1-3)Gal(b1-4)GlcNAc(b1-3)Gal(b1-4)GlcNAc(b1-3)Gal(b1-4)GlcNAc(b1-2)Man(a1-6)]Man(b1-4)GlcNAc(b1-4)[Fuc(a1-6)]GlcNAc
Outline: as §1

[25] = target: Gal(b1-4)GlcNAc(b1-3)Gal(b1-4)GlcNAc(b1-3)Gal(b1-4)GlcNAc(b1-3)Gal(b1-4)GlcNAc(b1-3)Gal(b1-4)GlcNAc(b1-2)[Gal(b1-4)GlcNAc(b1-3)Gal(b1-4)GlcNAc(b1-3)Gal(b1-4)GlcNAc(b1-3)Gal(b1-4)GlcNAc(b1-3)Gal(b1-4)GlcNAc(b1-6)]Man(a1-6)[Gal(b1-4)GlcNAc(b1-3)Gal(b1-4)GlcNAc(b1-3)Gal(b1-4)GlcNAc(b1-3)Gal(b1-4)GlcNAc(b1-3)Gal(b1-4)GlcNAc(b1-2)Man(a1-3)]Man(b1-4)GlcNAc(b1-4)[Fuc(a1-6)]GlcNAc
Outline: as §1

[26] = target: Gal(b1-4)GlcNAc(b1-3)Gal(b1-4)GlcNAc(b1-3)Gal(b1-4)GlcNAc(b1-3)Gal(b1-4)GlcNAc(b1-3)Gal(b1-4)GlcNAc(b1-3)Gal(b1-4)GlcNAc(b1-2)Man(a1-3)[Gal(b1-4)GlcNAc(b1-3)Gal(b1-4)GlcNAc(b1-3)Gal(b1-4)GlcNAc(b1-3)Gal(b1-4)GlcNAc(b1-3)Gal(b1-4)GlcNAc(b1-3)Gal(b1-4)GlcNAc(b1-2)Man(a1-6)]Man(b1-4)GlcNAc(b1-4)GlcNAc
Outline: as §1

[27] = target: Gal(b1-4)GlcNAc(b1-3)Gal(b1-4)GlcNAc(b1-3)GalNAc
Outline: as §1

[28] = target: Gal(b1-4)GlcNAc(b1-3)Gal(b1-4)GlcNAc(b1-3)[Gal(b1-4)GlcNAc(b1-3)Gal(b1-4)GlcNAc(b1-6)]GalNAc
Outline: as §1

[29] = target: Gal(b1-4)GlcNAc(b1-3)Gal(b1-4)GlcNAc(b1-6)[Gal(b1-3)]GalNAc
Outline: as §1

[30] = target: Gal(b1-4)GlcNAc(b1-3)Gal(b1-4)[Fuc(a1-3)GlcNAc(b1-6)]Gal(b1-4)Glc
Outline: as §1

B1: Siglec-F (Mus musculus), Q920G3 (protein)
chain: MRWAWLLPLLWAGCLATDGYSLSVTGSVTVQEGLCVFVACQVQYPNSKGPVFGYWFREGANIFSGSPVATNDPQRSVLKEAQGRFYLMGKENSHNCSLDIRDAQKIDTGTYFFRLDGSVKYSFQKSMLSVLVIALTEVPNIQVTSTLVSGNSTKLLCSVPWACEQGTPPIFSWMSSALTSLGHRTTLSSELNLTPRPQDNGTNLTCQVNLPGTGVTVERTQQLSVIYAPQKMTIRVSWGDDTGTKVLQSGASLQIQEGESLSLVCMADSNPPAVLSWERPTQKPFQLSTPAELQLPRAELEDQGKYICQAQNSQGAQTASVSLSIRSLLQLLGPSCSFEGQGLHCSCSSRAWPAPSLRWRLGEGVLEGNSSNGSFTVKSSSAGQWANSSLILSMEFSSNHRLSCEAWSDNRVQRATILLVSGPKVSQAGKSETSRGTVLGAIWGAGLMALLAVCLCLIFFTVKVLRKKSALKVAATKGNHLAKNPASTINSASITSSNIALGYPIQGHLNEPGSQTQKEQPPLATVPDTQKDEPELHYASLSFQGPMPPKPQNTEAMKSVYTEIKIHKC
[1]
  glycan array binding signal (z-score): -0.127
[2]
  glycan array binding signal (z-score): -0.117
[3]
  glycan array binding signal (z-score): -0.101
[4]
  glycan array binding signal (z-score): -0.093
[5]
  glycan array binding signal (z-score): 0.07
[6]
  glycan array binding signal (z-score): -0.093
[7]
  glycan array binding signal (z-score): -0.149
[8]
  glycan array binding signal (z-score): -0.146
[9]
  glycan array binding signal (z-score): -0.127
[10]
  glycan array binding signal (z-score): -0.097
[11]
  glycan array binding signal (z-score): -0.096
[12]
  glycan array binding signal (z-score): -0.101
[13]
  glycan array binding signal (z-score): 0.14
[14]
  glycan array binding signal (z-score): -0.051
[15]
  glycan array binding signal (z-score): -0.054
[16]
  glycan array binding signal (z-score): -0.052
[17]
  glycan array binding signal (z-score): -0.059
[18]
  glycan array binding signal (z-score): 0.059
[19]
  glycan array binding signal (z-score): 0.116
[20]
  glycan array binding signal (z-score): -0.059
[21]
  glycan array binding signal (z-score): 0.093
[22]
  glycan array binding signal (z-score): -0.079
[23]
  glycan array binding signal (z-score): 0.062
[24]
  glycan array binding signal (z-score): -0.101
[25]
  glycan array binding signal (z-score): 0.053
[26]
  glycan array binding signal (z-score): 0.161
[27]
  glycan array binding signal (z-score): -0.155
[28]
  glycan array binding signal (z-score): 0.032
[29]
  glycan array binding signal (z-score): 0.034
[30]
  glycan array binding signal (z-score): -0.086
